# Experimental data taken from PMC6919601, “Identification of Plasmodium dipeptidyl aminopeptidase allosteric inhibitors by high throughput screening” (PLoS ONE, 2019).
# Out of some 110,000 compounds screened, about 230 (0.21%) showed an effect of 50% or more. The list shows a part of the results.
# Molecular target: DPAP1 (Plasmodium falciparum, UniProt Q8IIJ9)
# Experiment: primary screen, percent inhibition; read by cleavage of a fluorogenic dipeptide substrate; higher = more effect of the substance
# Parameters: species or system P. falciparum D10 trophozoite lysates; single well
# 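Further: 30 min substrate incubation versus DMSO and 10 µM JCP410 controls.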
# Sequence of DPAP1 (Q8IIJ9 whole entry, looked up): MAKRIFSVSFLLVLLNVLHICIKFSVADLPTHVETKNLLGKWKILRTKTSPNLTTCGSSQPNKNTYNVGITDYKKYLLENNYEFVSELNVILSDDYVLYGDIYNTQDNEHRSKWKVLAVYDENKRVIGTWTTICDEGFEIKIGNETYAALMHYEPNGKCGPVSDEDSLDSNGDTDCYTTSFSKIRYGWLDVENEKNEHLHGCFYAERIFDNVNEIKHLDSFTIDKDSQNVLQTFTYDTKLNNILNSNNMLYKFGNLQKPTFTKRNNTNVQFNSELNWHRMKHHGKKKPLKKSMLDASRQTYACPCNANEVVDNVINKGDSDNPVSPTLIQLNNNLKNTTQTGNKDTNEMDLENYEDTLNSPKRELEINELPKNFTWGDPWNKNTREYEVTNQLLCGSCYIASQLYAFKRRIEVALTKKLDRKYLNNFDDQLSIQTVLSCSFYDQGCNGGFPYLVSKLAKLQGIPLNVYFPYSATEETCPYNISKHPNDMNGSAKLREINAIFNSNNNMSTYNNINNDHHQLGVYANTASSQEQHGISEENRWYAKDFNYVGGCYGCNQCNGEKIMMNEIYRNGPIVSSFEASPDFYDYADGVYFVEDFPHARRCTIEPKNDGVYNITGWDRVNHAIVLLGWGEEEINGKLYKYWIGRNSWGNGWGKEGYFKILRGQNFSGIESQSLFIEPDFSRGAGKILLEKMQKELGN
row,SMILES,% Inhibition @ 10 uM [%]
1,CC1(C)CC2=Nc3ccccc3N(C(=O)c3ccccc3)C(c3ccco3)C2=C(O)C1 (centres unmarked),-1.08
2,COC(=O)c1c(C)oc2cc(Br)c(O)cc12,4.66
3,Cc1nc2c(c(C)c1CCC(=O)NCC1CCN(Cc3ccccc3F)CC1)c(=O)n(C)c(=O)n2C,-1.3
4,O=C1C(C(c2ccc(Cl)cc2)N2CCCC2)C(c2ccc(Cl)cc2)=NN1c1ccc(Cl)cc1 (centres unmarked),-6.52
5,CC(C)CCNC(=O)Cn1ccc2cc(S(=O)(=O)N3CCCC3)ccc21,0.536
6,C=C(C)C(C)(O)C#CCN1CCCCC1 (centres unmarked),2.54
7,O=C(Nc1ccc(Cl)cc1)Nc1cccc(Cl)c1,-4.94
8,C/C=C/C=C/C(=O)Nc1ccc(-c2nc3ccccc3o2)cc1,0.219
9,CCOC(=O)c1ccc(-c2nnc(-c3ccccc3OC)o2)cc1,2.7
10,COc1ccc(N(CC(=O)NC(C)(C)C)S(=O)(=O)c2ccc(C)cc2)cc1Cl,-0.185
11,Fc1ccccc1-c1nnc(-c2ccc(C(F)(F)F)cc2)o1,-5.32
12,CC(C)(C)NC(=O)CCNS(=O)(=O)c1ccc(Br)s1,-0.601
13,Cc1c(O)ccc(-c2[nH]ncc2Oc2ccccc2)c1O,4.07
14,CC(C)C[C@H](NC(=O)OC(c1ccccc1)c1ccccc1C(F)(F)F)C(=O)NCC#N (some centres unmarked),0.174
15,CCOC(=O)c1c(-c2ccc(OC)cc2)oc2ccc(OCC)cc12,-3.41
16,CCOc1cccc(-c2cc(C(=O)O)c3cccc(C)c3n2)c1,2.69
17,Cc1ccc(CNC(=O)Cc2c(C)nc3c(-c4ccccc4)c(C)nn3c2C)cc1,5.47
18,Cc1nn(C)c(C)c1CN(C)C(=O)c1cc2nc3c(c(C(F)(F)F)n2n1)CCc1ccccc1-3,0.64
19,Cc1nc2c3ccccc3n3c(CCCC(=O)NCc4ccccn4)nnc3n2n1,-1.21
20,O=C(c1cccc(Cl)c1)N1CCc2ccccc2C1,8.74
21,CC(C)c1ccc(NC(=O)CN(C)S(=O)(=O)c2ccc(Br)cc2)cc1,-3.26
22,CCN1CCN(C(=O)C2CC(c3ccccc3OC)=NO2)CC1 (centres unmarked),6.04

row,SMILES,% Inhibition @ 10 uM [%]
1,Cc1nn(CCCC(=O)N2CCN(C3CCCCC3)CC2)c(=O)c2c1sc1ccccc12,2.21
2,O=C(C1CCN(c2nnc(-n3cccc3)s2)CC1)N1CCc2ccccc2C1,-4.04
3,Cc1cc(N)ccc1-n1nc2ccccc2n1,-2.97
4,O=C(O)C(Cc1ccccc1)NS(=O)(=O)c1cccc2cccnc12 (centres unmarked),-0.458
5,CC1(C)CC(=O)C(/C=N/c2ccc3ccccc3c2)=C(O)C1,-1.07
6,Cc1ccc(-c2cc(C(=O)NCc3ccco3)c3ccccc3n2)s1,5.84
7,Cc1ccc(C2C(=O)N(C3CCCCCC3)CC(=O)N2Cc2ccccc2)cc1 (centres unmarked),-5.92
8,Cc1ccc(C(=O)N2CCN(c3cccc(C(F)(F)F)c3)CC2)o1,-3.45
9,COc1ccc(OC)c(C2NC(=O)NC(C)=C2C(=O)Nc2ccc(Cl)cc2)c1 (centres unmarked),-3.04
10,N#CCNC(=O)[C@H](Cc1c(F)cc(Cl)cc1F)NC(=O)OCc1ccccc1,-4.82
11,Cc1ccc(SCCC(=O)N2CCN(C)CC2)cc1,3.37
12,COc1cccc(C2=NOC(C(=O)Nc3cccnc3)C2)c1 (centres unmarked),6.22
13,COc1ccc(NC(=O)C2(c3ccccc3)CCOCC2)cc1,4.22
14,Cc1ccc(Cc2c(C)nc3c(C(=O)NCCCN4CCOCC4)cnn3c2C)cc1,-11.8
15,CN1CCN(CC(=O)Nc2ccc(Cl)cc2C(=O)c2ccccc2)CC1,-10.1
16,O=C(COc1ccccc1)Nc1ccc(S(=O)(=O)N2CCc3ccccc32)cc1,6.24
17,N#Cc1cccc(NC(=O)CCc2ccccc2)c1,2.17
18,COc1ccc(-c2cc(C(F)(F)F)n3ncc(C(=O)NC4CCCCC4)c3n2)cc1OC,-1.87
19,COc1ccc(/C=C/C(=O)c2ccncc2)c2ccccc12,-3.77
20,Cc1csc(NC(=O)c2c(O)c3ccccc3n(CC(C)C)c2=O)n1,6.1
21,Cc1cccc(C(=O)Nc2nc(-c3nnn(-c4ccc(F)c(Cl)c4)c3C)ns2)c1,1.97
22,Cc1cc(O)nc2c1c(C)nn2CCc1ccccn1,-2.77

row,SMILES,% Inhibition @ 10 uM [%]
1,COc1ccc(-n2nnnc2C2CCN(S(=O)(=O)c3ccccc3C#N)CC2)cc1,-9.21
2,O=C(Nc1cccc2ccccc12)c1c(F)cccc1F,-2.28
3,Cc1ccc(CNCc2c(C(=O)O)n(Cc3ccc(F)cc3Cl)c3cc(C)ccc23)cc1,-8.66
4,Cc1cc(C)c(C)c(OCC(=O)NC23CC4CC(CC(C4)C2)C3)c1,-3.29
5,Cc1nc(SCC(=O)N2CCC(C)CC2)c2c3c(sc2n1)CCCC3,-2.28
6,Cc1cc(C)c(NC(=O)c2ccc(C)o2)c(C)c1,-0.132
7,COc1ccc(CN2CC(C)CC(C)C2)c2ccccc12 (centres unmarked),-1.5
8,CC(C)(C)NC(=O)CSc1nnc(-c2ccc(Cl)cc2Cl)o1,2.79
9,CCOC(=O)/C(C#N)=C/c1ccc(O)cc1O,5.29
10,Cc1cc(C)c2c(-n3cccc3)c(C(=O)NCCCN3CCC(N4CCCCC4)CC3)sc2n1,0.623
11,O=C(NCC1CCCO1)c1cnn2c(C(F)(F)F)cc(-c3cccs3)nc12 (centres unmarked),-4.06
12,CCOC(=O)c1ccccc1NC(=O)c1ccccc1Cl,2.57
13,CCN(CC)C(=O)c1ccc(CS(=O)c2ccccc2C)o1 (centres unmarked),-4.96
14,COc1cc(NC2CCCCCC2)cc(OC)c1,-5.44
15,Cc1ccc2nc(C)c(CN3CCOCC3)c(O)c2c1,1.37
16,CC1=C(C(=O)OC2CCCCCCC2)C(c2ccccc2Cl)CC(=O)N1 (centres unmarked),1.97
17,CCN(CC)C(=O)c1ccc(C(O)C(Cl)(Cl)Cl)o1 (centres unmarked),5.64
18,CC(C)OCCCNc1ncnc2c1cnn2C,4.92
19,Cc1cccc(N2CCN(C(=O)c3ccccc3C(=O)O)CC2)c1,1.92
20,COc1ccc(C(=O)c2sc3nc(C)ccc3c2N)cc1OC,5.66
21,C1=C(c2ccccc2)CC(c2ccccc2)=NN=C1c1ccccc1,-1.54
